Paper PMC4336329 (PLoS ONE, 2015)
The campaign covered roughly 310,000 compounds. About 14,000 (4.5%) showed an effect of 50% or more. Effects have a minus sign here. The list shows a part of the results.

The molecules below were run against human ether-à-go-go-related gene (hERG) potassium channel (human, UniProt Q12809) (assay: primary screen, population patch clamp on CHO cells stably expressing hERG).
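Also: peak tail current of the secondary pulse compared with the same well before compound.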

Sequence of human ether-à-go-go-related gene (hERG) potassium channel (Q12809 whole entry, looked up): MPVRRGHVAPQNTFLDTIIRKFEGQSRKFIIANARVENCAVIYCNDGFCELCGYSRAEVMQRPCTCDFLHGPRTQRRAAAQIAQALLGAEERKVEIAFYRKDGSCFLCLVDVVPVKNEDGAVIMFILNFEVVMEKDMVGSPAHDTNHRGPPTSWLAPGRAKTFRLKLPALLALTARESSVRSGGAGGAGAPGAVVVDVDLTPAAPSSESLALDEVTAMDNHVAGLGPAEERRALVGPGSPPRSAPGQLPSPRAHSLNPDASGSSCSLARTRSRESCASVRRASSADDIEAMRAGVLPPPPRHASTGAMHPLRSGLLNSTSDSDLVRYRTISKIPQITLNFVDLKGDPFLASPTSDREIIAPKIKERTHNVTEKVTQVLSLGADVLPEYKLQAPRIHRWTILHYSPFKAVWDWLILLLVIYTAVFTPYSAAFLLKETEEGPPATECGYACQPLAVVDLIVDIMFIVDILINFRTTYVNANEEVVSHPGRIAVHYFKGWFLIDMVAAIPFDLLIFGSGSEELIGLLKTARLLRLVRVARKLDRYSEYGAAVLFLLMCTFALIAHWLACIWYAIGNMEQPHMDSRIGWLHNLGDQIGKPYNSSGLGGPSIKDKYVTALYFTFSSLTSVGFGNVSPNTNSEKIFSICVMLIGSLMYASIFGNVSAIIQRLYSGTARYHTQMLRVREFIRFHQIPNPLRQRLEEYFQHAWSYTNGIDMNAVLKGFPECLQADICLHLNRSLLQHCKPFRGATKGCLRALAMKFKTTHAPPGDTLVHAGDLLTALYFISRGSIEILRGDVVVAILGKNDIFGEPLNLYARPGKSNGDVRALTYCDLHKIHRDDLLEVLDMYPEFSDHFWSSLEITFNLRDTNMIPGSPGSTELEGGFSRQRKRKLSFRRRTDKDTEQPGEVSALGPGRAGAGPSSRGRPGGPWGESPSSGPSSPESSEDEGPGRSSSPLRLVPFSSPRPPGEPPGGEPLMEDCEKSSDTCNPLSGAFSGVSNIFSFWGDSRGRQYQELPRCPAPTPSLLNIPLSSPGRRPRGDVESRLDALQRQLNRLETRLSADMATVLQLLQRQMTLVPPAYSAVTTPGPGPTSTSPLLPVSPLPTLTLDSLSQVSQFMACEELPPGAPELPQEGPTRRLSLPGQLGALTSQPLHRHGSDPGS

SMILES	hERG current change (%, negative = inhibition) at 10uM
CCc1ccccc1NC(=O)CSc1nnc(-c2ccncc2)o1	0.695%
O=C(COC(=O)Cc1ccsc1)Nc1cccc(Cl)c1	-8.02%
CS(=O)(=O)Nc1ccc(-c2n[nH]c(=S)n2-c2ccccc2)cc1	-4.45%
CCN(CC)C(=O)c1ccc(S(=O)(=O)N2CCC(c3nc4ccccc4s3)CC2)cc1	-8.31%
CCOc1ccc(OCC(=O)Nc2ccc(OC)cc2[N+](=O)[O-])cc1	3.3%
COc1cccc(NC(=O)C2CCC(CNS(=O)(=O)c3cccs3)CC2)c1 (centres unmarked)	7.92%
Cc1nc(-c2ccccc2)nc2sc(C(=O)c3ccc(F)cc3)c(N)c12	5.03%
CCOc1ccc(Nc2nc(N3CCCCC3)nc(N3CCCCC3)n2)cc1	4.1%
COc1ccc(N(C(=O)Cn2nnc3ccccc32)C(C(=O)NC(C)(C)C)c2ccc(OC)c(O)c2)cc1 (centres unmarked)	3.1%
NC(=S)N=Nc1c(O)n(Cc2ccc(Br)cc2)c2ccccc12	15.2%
Cc1c(CNC2CCCC2)c(C(=O)O)c(C)n1Cc1ccccc1	2.8%
CCOC(=O)/C=C/C(=O)Nc1ccc(S(=O)(=O)Nc2nccs2)cc1	9.64%
COc1ccc(NS(=O)(=O)c2csc(C(=O)Nc3ccccc3)c2)cc1	10.8%
CCC1(C)NC(=O)N(CC(=O)N2CCC(Cc3ccccc3)CC2)C1=O (centres unmarked)	3.65%
O=C(c1ccc(Cl)cc1)c1ccc(OCC(O)CN2CCCCC2)cc1 (centres unmarked)	-75.1%
COC(=O)c1ccc2c(=O)n(-c3ccccc3)c(=S)[nH]c2c1	19.1%
N#Cc1ccc(NC(=O)Cn2cnc(S(=O)(=O)N3CCCC3)c2)cc1	22.3%
CN(C(=O)CCS(=O)(=O)c1cc2c(cc1Cl)NC(=O)CO2)C1CCCCC1	-38.4%
CC(=NCc1ccco1)c1c(C)[nH]n(-c2nc3ccccc3s2)c1=O	3.78%
CC(C(=O)Nc1ccc2c(c1)OCCO2)N(c1ccccc1)S(C)(=O)=O (centres unmarked)	-2%
CCCCCCCCC(=O)N/N=C(\C)c1ccco1	6.19%
COc1ccc(S(=O)(=O)[O-])cc1P(=O)(c1ccccc1)c1ccccc1.[Na+]	8.93%
CC(C)CNC(=O)c1cccc(NC(=O)Cc2ccc(Br)cc2)c1	-1.89%

SMILES	hERG current change (%, negative = inhibition) at 10uM
COc1ccc(C2=NN(CC(=O)NCc3ccco3)C(=O)CC2)cc1	5.85%
CCCCc1ccc(NC(=S)NCc2cccs2)cc1	23.1%
CC(=O)N1CCN(c2nc(-c3cccs3)nc3ccccc23)CC1	-63.2%
CCCCNC(=S)N/N=C/c1ccc(C#N)cc1	19.3%
CC(C)(C)NC(=O)COC(=O)c1cc(F)c(F)cc1Cl	3.04%
CS(=O)(=O)N(CC(=O)NCc1ccco1)c1ccc(Cl)c(C(F)(F)F)c1	-7.47%
COc1ccc(-c2cc(C(=O)O)nc3ccc4ccccc4c23)cc1OC	12.6%
CN(C)S(=O)(=O)c1ccc(N2CCCC2)c(C(=O)NNC(=O)COc2ccccc2F)c1	-61.4%
O=C(NCCCn1ccnc1)c1ccco1	-4.47%
CSCCC(NC(=O)c1cncc(Br)c1)C(=O)O (centres unmarked)	2.23%
CCCNC(=O)COc1ncnc2sccc12	2.7%
CCN1CCSc2ccc(C(=O)NCc3ccccc3C)cc21	-3.53%
COc1ccc(OC)c(C2C(C(=O)c3ccco3)=C(O)C(=O)N2CCN2CCOCC2)c1 (centres unmarked)	12.7%
O=C(c1cccc(NS(=O)(=O)c2ccccc2)c1)N1CCCCC1	-2.47%
CN1Cc2ccccc2CC1CNCc1c(C(=O)N2CCCC2)nc2ccccn12 (centres unmarked)	-73.5%
Cc1ccc(-n2nnnc2SCc2ccc(C(=O)O)cc2)cc1C	-70.7%
CCOC(=O)N1CCN(C(=O)Nc2ccccc2Cl)CC1	9.66%
CC(C)(C)NS(=O)(=O)c1cc(C(=O)Nc2sccc2C#N)ccc1Cl	4.98%
CCOc1ccccc1NC(=O)Nc1ccc(Cl)cc1	-10.1%
Cc1n(CC(O)COC2CCCCC2)c2ccccc2[n+]1C.[I-] (centres unmarked)	4.89%
CC(=O)c1c(C)[nH]c(C(=O)OCC(=O)N(C)C)c1C	-2.26%
Cc1cccc(N2CCN(C(=O)c3ccc4c(c3)CCN4S(C)(=O)=O)CC2)c1C	-14.8%
O=[N+]([O-])c1cccnc1Oc1ccc(OCc2ccccc2)cc1	3.86%

SMILES	hERG current change (%, negative = inhibition) at 10uM
COc1cc(N)cc(NC(=O)c2ccncc2)c1	15.5%
CCCCc1nnc(NC(=O)CSc2nc(=O)cc(N)n2-c2ccccc2)s1	-24%
CS(=O)(=O)N(CCc1ccccc1)CC(=O)N1CCN(c2ccccc2)CC1	15%
Cn1c(SCC(=O)Nc2ccc3c(c2)n(C)c(=O)n3C)nnc1-c1ccncc1	43.5%
NC(=O)NC(=O)COC(=O)CCCc1c[nH]c2ccccc12	5.09%
C[C@H](NC(=O)c1ccc(Br)cc1)C(=O)NCc1ccc(S(N)(=O)=O)cc1	15%
Cc1ccccc1CNC(=O)CN(c1ccccc1Cl)S(C)(=O)=O	-8.64%
COc1cc(NC(=O)C(C)Oc2ccccc2)c(OC)cc1NC(=O)c1ccccc1 (centres unmarked)	7.29%
Cc1ccc(NC2=NC(c3ccccc3)n3c(nc(C)cc3=O)N2)c(C)c1 (centres unmarked)	-1.11%
O=C(O)C1CCCN(S(=O)(=O)c2ccc(Br)cc2)C1 (centres unmarked)	-2.36%
CCCCn1c(N)c(N(CCOC)C(=O)c2ccc(Br)o2)c(=O)[nH]c1=O	19.1%
Cc1cc(NC(=O)CCN2C(=O)C3C4C=CC(C4)C3C2=O)c2ccccc2n1 (centres unmarked)	7.51%
CC1=C(C(=O)Nc2ccccc2)C(c2coc3ccccc3c2=O)C2=C(CCCC2=O)N1 (centres unmarked)	-5.86%
COc1cc(C)c(Cl)cc1S(=O)(=O)NCC1CCCO1 (centres unmarked)	8.14%
O=S(=O)(/N=C(/Nc1ccccc1)c1ccccc1O)c1ccccc1	-11.3%
O=S(=O)(Cc1nnnn1-c1ccccc1)c1ccccc1	10.8%
Cc1ccc(F)cc1NC(=O)c1cnccn1	26.8%
Cc1ccccc1C(=O)NN1CCOCC1	6.4%
N#Cc1ccc(OCC(=O)NC(=O)NC2CCS(=O)(=O)C2)cc1 (centres unmarked)	-7.71%
COC(=O)c1c(C)oc2ccc(OC(=O)N3CCOCC3)cc12	-8.62%
CCN(Cc1ccccc1)C(=O)Cn1c(=O)n(-c2ccc(OC)cc2OC)c(=O)c2c(C)c(C)sc21	11.1%
Cc1oc(-c2ccccc2F)nc1CS(=O)(=O)CC(=O)NC1CCCC1	-3.47%
Cc1cccc(C)c1OCC(=O)Nc1ccc(N2CCOCC2)cc1	-4.13%

SMILES	hERG current change (%, negative = inhibition) at 10uM
CCOc1ccc(N(CC(=O)N2CCCCCC2)S(=O)(=O)c2ccc(F)cc2)cc1	-38%
Nc1c(N(CCC2=CCCCC2)C(=O)c2ccccc2F)c(=O)[nH]c(=O)n1Cc1ccccc1	15.5%
c1ccc(C[C@H]2CNCCN2CCc2cccc3ccccc23)cc1	-35.6%
O=C(NCCO)c1ccc(Cl)c(Cl)c1	-2.23%
CCOC(=O)N1CCN(C(=O)c2nn(-c3ccc(C)cc3)c(=O)c3c2c2ccccc2n3C)CC1	14.6%
CCOCCOC(=O)c1[nH]c2c(c1C)C(=O)CC(c1cc(OC)c(OC)c(OC)c1)C2 (centres unmarked)	-0.921%
CC(=O)c1cnn(-c2cc(Oc3cccc(C)c3)ncn2)c1C	18.9%
COc1ccccc1NC(=O)Cc1nnc(SCC(=O)NC2CCCC2)n1C	7.65%
CCCCn1c(O)c(C(C)=NCc2cccnc2)c(=O)[nH]c1=O	-23.5%
CC(=O)Nc1ccc(/C(C)=N/Nc2nc(Nc3cccc4ccccc34)nc(N3CCOCC3)n2)cc1.CCO	5.89%
Cc1ccnc(SCc2cn3c(C)cc(C)nc3n2)n1	-3.93%
Cc1cc(NC(=O)CSCC(=O)Nc2nc3ccccc3[nH]2)no1	30.9%
CC(C)(C)N1CC(C(=O)Nc2ccc(S(N)(=O)=O)cc2)CC1=O (centres unmarked)	10.6%
Cc1ccc(NC(=O)/C(Cl)=C/c2ccccc2)cc1C	-6.65%
CCN(CC)CCCN(C(=O)c1ccco1)c1nc(-c2ccc(C)cc2)cs1.Cl	-84.1%
CCCOc1cc(CN2CCCCC2)cc(C(C)=O)c1.Cl	-16.3%
COCC(C)n1c(=O)sc2ccccc2c1=O (centres unmarked)	3.14%
COc1ccc(OC)c(C(=O)NC(CC(N)=O)c2ccc(N3CCN(c4ccccc4)CC3)c([N+](=O)[O-])c2)c1 (centres unmarked)	9.86%
O=C(Cc1ccc(S(=O)(=O)N2CCOCC2)s1)Nc1ccc(N2CCOCC2)cc1	40.5%
COc1ccc(S(=O)(=O)NCC(c2ccc3c(c2)OCO3)N2CCN(c3ccccc3)CC2)cc1 (centres unmarked)	0.826%
